# This is a noisy data set.
# Assay: amyloid nucleation score relative to library mode (yeast Sup35 reporter selection) (log enrichment difference); higher = more amyloid nucleation; sequences are the first 22 residues of the Bri2 peptide extended by up to 12 random residues
# Details: random library (experiment): 1;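 active = nucleation score significantly above 0 at FDR 0.05; inactive = not significantly above 0 or absent from output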
# 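Also: [psi-pin-] Saccharomyces cerevisiae expressing SupN fusions, induced by 100 µM Cu2SO4, selected 7 d at 30 °C without adenine and uracil, scored by deep sequencing of output versus input.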
row,Sequence,amyloid nucleation score
1,EASNCFAIRHFENKFAVETLICVSKWSSNLVSRR,2.92
2,EASNCFAIRHFENKFAVETLICVSMGTTFRLCVH,inactive
3,EASNCFAIRHFENKFAVETLICVSMKGPKGMLWS,inactive
4,EASNCFAIRHFENKFAVETLICVSMPGDRDELVR,inactive
5,EASNCFAIRHFENKFAVETLICVSMRLTTYPRAY,2.43
6,EASNCFAIRHFENKFAVETLICVSMRVLLWLRML,inactive
7,EASNCFAIRHFENKFAVETLICVSMYLNVLGYTS,-0.648
8,EASNCFAIRHFENKFAVETLICVSNVRFQKNVWR,1.78
9,EASNCFAIRHFENKFAVETLICVSNYFRYIRWYM,inactive
10,EASNCFAIRHFENKFAVETLICVSPGRDGNGSAA,inactive
11,EASNCFAIRHFENKFAVETLICVSPSQYEGFMRQ,4.45
12,EASNCFAIRHFENKFAVETLICVSRGRGRRTLTD,inactive
13,EASNCFAIRHFENKFAVETLICVSRHSMCHIIVT,inactive
14,EASNCFAIRHFENKFAVETLICVSRISISVVLG,inactive
15,EASNCFAIRHFENKFAVETLICVSRTWGTVGWPR,inactive
16,EASNCFAIRHFENKFAVETLICVSRWDTSFKPYV,inactive
17,EASNCFAIRHFENKFAVETLICVSRYQHNHSLLW,inactive
18,EASNCFAIRHFENKFAVETLICVSS,inactive
19,EASNCFAIRHFENKFAVETLICVSSCFCPESLMW,6.16

row,Sequence,amyloid nucleation score
1,EASNCFAIRHFENKFAVETLICVSSCPDAQWVAP,inactive
2,EASNCFAIRHFENKFAVETLICVSSGSLWCSHCR,inactive
3,EASNCFAIRHFENKFAVETLICVSSLCAWQGPKS,2.4
4,EASNCFAIRHFENKFAVETLICVSSLCSSQVWLR,inactive
5,EASNCFAIRHFENKFAVETLICVSSSRLSVAFGM,inactive
6,EASNCFAIRHFENKFAVETLICVSSSRPVGVMKL,inactive
7,EASNCFAIRHFENKFAVETLICVSSSVVFVRQGP,2.46
8,EASNCFAIRHFENKFAVETLICVSSTPVMEECHV,inactive
9,EASNCFAIRHFENKFAVETLICVSSYSVHKVLGW,-0.111
10,EASNCFAIRHFENKFAVETLICVSTIFSGRRAYG,inactive
11,EASNCFAIRHFENKFAVETLICVSTLYSEVGVPR,-0.505
12,EASNCFAIRHFENKFAVETLICVSTMKNRCSMVG,inactive
13,EASNCFAIRHFENKFAVETLICVSTRF,0.00985
14,EASNCFAIRHFENKFAVETLICVSTVSRSVEFKR,3.09
15,EASNCFAIRHFENKFAVETLICVSVDSCLPGCGH,6.08
16,EASNCFAIRHFENKFAVETLICVSVFAMVRSSYE,inactive
17,EASNCFAIRHFENKFAVETLICVSVLVSDMDTLM,inactive
18,EASNCFAIRHFENKFAVETLICVSVRKVTTPNAL,0.7
19,EASNCFAIRHFENKFAVETLICVSVTGAVTGLWW,2.37

row,Sequence,amyloid nucleation score
1,EASNCFAIRHFENKFAVETLICVSVTQSSLCGRG,inactive
2,EASNCFAIRHFENKFAVETLICVSVWIKGFSVVK,inactive
3,EASNCFAIRHFENKFAVETLICVSVWPEQLGEGR,inactive
4,EASNCFAIRHFENKFAVETLICVSWDRSGEWCRL,0.92
5,EASNCFAIRHFENKFAVETLICVSWGSLLVSLIR,inactive
6,EASNCFAIRHFENKFAVETLICVSYFMRLFRHER,1.8
7,EASNCFAIRHFENKFAVETLICVSYHMEKSLVYT,inactive
8,EASNCFAIRHFENKFAVETLICVSYYGS,2.12
9,EASNCFAIRHFENKFAVETLICVT,inactive
10,EASNCFAIRHFENKFAVETLICVTA,inactive
11,EASNCFAIRHFENKFAVETLICVTACPHTIRWCS,inactive
12,EASNCFAIRHFENKFAVETLICVTAQMWMRSKVG,inactive
13,EASNCFAIRHFENKFAVETLICVTARWAWWREKR,inactive
14,EASNCFAIRHFENKFAVETLICVTASRVCSCPGP,inactive
15,EASNCFAIRHFENKFAVETLICVTCSHGSYMRGM,6.67
16,EASNCFAIRHFENKFAVETLICVTEAGVILNMCW,inactive
17,EASNCFAIRHFENKFAVETLICVTESIHICFH,2.08
18,EASNCFAIRHFENKFAVETLICVTESPMLSLSLV,1.29

# Same assay, conditions: random library (experiment): 2
row,Sequence,amyloid nucleation score
1,EASNCFAIRHFENKFAVETLICVSL,inactive
2,EASNCFAIRHFENKFAVETLICVSLGRGFLPTER,inactive
3,EASNCFAIRHFENKFAVETLICVSLGTWTGVENV,6.9
4,EASNCFAIRHFENKFAVETLICVSLGYSWPVNTV,inactive
5,EASNCFAIRHFENKFAVETLICVSLPDS,inactive
6,EASNCFAIRHFENKFAVETLICVSLSFFYVKDPR,-0.157
7,EASNCFAIRHFENKFAVETLICVSLVIQCSSV,inactive
8,EASNCFAIRHFENKFAVETLICVSM,inactive
9,EASNCFAIRHFENKFAVETLICVSMKSAIAIPWC,1.04
10,EASNCFAIRHFENKFAVETLICVSNAHVGICYMG,6.05
11,EASNCFAIRHFENKFAVETLICVSNGNQGTLALL,inactive
12,EASNCFAIRHFENKFAVETLICVSPSSPRSHSDA,inactive
13,EASNCFAIRHFENKFAVETLICVSQDWLSLTNLQ,-0.0392
14,EASNCFAIRHFENKFAVETLICVSRCDLQ,inactive
15,EASNCFAIRHFENKFAVETLICVSRDNNLFAFRG,6.21
16,EASNCFAIRHFENKFAVETLICVSRMSHSFIVLD,inactive
17,EASNCFAIRHFENKFAVETLICVSRSLA,inactive
18,EASNCFAIRHFENKFAVETLICVSSFIVVSQFKR,inactive
19,EASNCFAIRHFENKFAVETLICVSSSFYVGWGRY,inactive
20,EASNCFAIRHFENKFAVETLICVSTD,inactive

row,Sequence,amyloid nucleation score
1,EASNCFAIRHFENKFAVETLICVSTLSNMRVLL,4.15
2,EASNCFAIRHFENKFAVETLICVSTSASLIIMPR,inactive
3,EASNCFAIRHFENKFAVETLICVSTVLRLLYDRV,inactive
4,EASNCFAIRHFENKFAVETLICVSVFSSYFYSFR,inactive
5,EASNCFAIRHFENKFAVETLICVSVLLH,-0.329
6,EASNCFAIRHFENKFAVETLICVSVWYWAGERRS,inactive
7,EASNCFAIRHFENKFAVETLICVSVYGSVCISLP,0.683
8,EASNCFAIRHFENKFAVETLICVSWISQLSDCYR,inactive
9,EASNCFAIRHFENKFAVETLICVSYHKDINCWVR,inactive
10,EASNCFAIRHFENKFAVETLICVSYSIVECTPVR,0.635
11,EASNCFAIRHFENKFAVETLICVSYTCCDAWVMS,5.85
12,EASNCFAIRHFENKFAVETLICVTAYYMDGLSVA,inactive
13,EASNCFAIRHFENKFAVETLICVTCMSFTSVNLL,5.66
14,EASNCFAIRHFENKFAVETLICVTFHWQMPLLRR,inactive
15,EASNCFAIRHFENKFAVETLICVTFIAFMLTGC,inactive
16,EASNCFAIRHFENKFAVETLICVTFKLGW,3.06
17,EASNCFAIRHFENKFAVETLICVTFNGFGLREKG,5.33
18,EASNCFAIRHFENKFAVETLICVTFQKPN,inactive
19,EASNCFAIRHFENKFAVETLICVTFVFSLCMCEA,inactive

# Same assay, conditions: random library (experiment): 3
row,Sequence,amyloid nucleation score
1,EASNCFAIRHFENKFAVETLICVSMCRQMGKSGP,3.4
2,EASNCFAIRHFENKFAVETLICVSMVNKALRTWR,inactive
3,EASNCFAIRHFENKFAVETLICVSNRWWRALLVQ,inactive
4,EASNCFAIRHFENKFAVETLICVSQG,inactive
5,EASNCFAIRHFENKFAVETLICVSRIAIVLGLSL,inactive
6,EASNCFAIRHFENKFAVETLICVSRL,2.3
7,EASNCFAIRHFENKFAVETLICVSRLYGMESYTW,2.1
8,EASNCFAIRHFENKFAVETLICVSRWATW,inactive
9,EASNCFAIRHFENKFAVETLICVSSNPVLGLACW,inactive
10,EASNCFAIRHFENKFAVETLICVSV,inactive
11,EASNCFAIRHFENKFAVETLICVSVCAADCYGL,5.35
12,EASNCFAIRHFENKFAVETLICVSVDSAFCFARL,6.93
13,EASNCFAIRHFENKFAVETLICVSVRSGVNGSAS,inactive
14,EASNCFAIRHFENKFAVETLICVSWLVYRSIIRV,inactive
15,EASNCFAIRHFENKFAVETLICVSWPVTSGLKDF,inactive
16,EASNCFAIRHFENKFAVETLICVSYAESREYSNV,inactive
17,EASNCFAIRHFENKFAVETLICVSYQCRHHGALC,4.08
18,EASNCFAIRHFENKFAVETLICVTDLGGTSRNEA,inactive
19,EASNCFAIRHFENKFAVETLICVTEVGDPLVRS,inactive
20,EASNCFAIRHFENKFAVETLICVTEVILLCKRPT,inactive
21,EASNCFAIRHFENKFAVETLICVTFGRSGSCFAG,3.49
22,EASNCFAIRHFENKFAVETLICVTFSNIATWC,3.8
23,EASNCFAIRHFENKFAVETLICVTFWTKNVWRSL,2.61

# From the supplement of paper PMC12067230
